Source: article PMC4336329 (PLoS ONE, 2015)
Among all 310,000 compounds or so, about 2,200 (0.71%) showed an effect of 50% or more. Effects have a minus sign here. The list shows a part of the results.

What follows are compounds tested against human ether-à-go-go-related gene (hERG) potassium channel (human, UniProt Q12809) (assay: primary screen, population patch clamp on CHO cells stably expressing hERG).
human ether-à-go-go-related gene (hERG) potassium channel, sequence (Q12809 whole entry, looked up): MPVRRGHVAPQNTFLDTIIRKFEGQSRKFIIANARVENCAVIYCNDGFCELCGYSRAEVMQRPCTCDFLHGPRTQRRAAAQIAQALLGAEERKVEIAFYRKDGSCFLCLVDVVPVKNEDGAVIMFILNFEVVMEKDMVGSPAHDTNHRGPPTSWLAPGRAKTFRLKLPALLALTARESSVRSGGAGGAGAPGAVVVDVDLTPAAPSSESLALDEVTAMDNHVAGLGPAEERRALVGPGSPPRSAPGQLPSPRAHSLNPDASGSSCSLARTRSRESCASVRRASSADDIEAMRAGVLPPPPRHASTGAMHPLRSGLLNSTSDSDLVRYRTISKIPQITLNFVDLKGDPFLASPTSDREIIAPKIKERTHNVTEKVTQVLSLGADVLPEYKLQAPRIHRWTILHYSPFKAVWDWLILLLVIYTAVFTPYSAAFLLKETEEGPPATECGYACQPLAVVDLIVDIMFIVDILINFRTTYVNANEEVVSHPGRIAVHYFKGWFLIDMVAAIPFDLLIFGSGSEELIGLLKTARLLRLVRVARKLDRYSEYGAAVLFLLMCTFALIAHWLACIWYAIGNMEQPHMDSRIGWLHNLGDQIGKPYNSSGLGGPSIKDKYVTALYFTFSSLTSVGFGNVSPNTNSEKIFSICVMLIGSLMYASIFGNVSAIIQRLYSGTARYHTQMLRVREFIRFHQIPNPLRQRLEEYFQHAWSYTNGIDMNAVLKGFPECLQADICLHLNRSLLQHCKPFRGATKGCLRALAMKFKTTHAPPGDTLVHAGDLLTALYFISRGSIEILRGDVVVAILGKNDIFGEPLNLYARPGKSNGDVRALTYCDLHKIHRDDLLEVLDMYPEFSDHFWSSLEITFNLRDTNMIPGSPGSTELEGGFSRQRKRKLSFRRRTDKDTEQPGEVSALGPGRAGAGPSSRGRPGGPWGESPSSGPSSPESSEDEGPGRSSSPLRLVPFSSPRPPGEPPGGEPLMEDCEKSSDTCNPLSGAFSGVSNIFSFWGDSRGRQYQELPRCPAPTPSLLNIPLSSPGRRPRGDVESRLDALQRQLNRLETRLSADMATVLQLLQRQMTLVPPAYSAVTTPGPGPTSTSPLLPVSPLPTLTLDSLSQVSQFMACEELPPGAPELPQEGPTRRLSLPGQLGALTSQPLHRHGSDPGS

Row | Structure (SMILES) | hERG current change (%, negative = inhibition) at 1uM [%]
1 | CCCCn1c(N)c(N(CCOC)C(=O)CCS(=O)(=O)c2ccc(Cl)cc2)c(=O)[nH]c1=O | 21.1
2 | COc1ccc(NC(=O)COC(=O)Cc2c(F)cccc2Cl)cc1OC | 8.82
3 | Cc1cc(C(=O)CSc2nnc(Cc3ccccc3)o2)c(C)n1Cc1ccc2c(c1)OCO2 | 8.36
4 | OCCN1CCN(c2ncnc3c2c(-c2ccccc2)cn3-c2ccc(Br)cc2)CC1 | 9.48
5 | CC(=O)N1CC2(C)CN(C(C)=O)CC(C)(C1)C2O (centres unmarked) | 9.01
6 | CCCCOCCCNC(=O)Cc1cccs1 | 13.7
7 | CCCCNC(=S)NCc1ccc2[nH]c(C)cc2c1 | 1.51
8 | CCOc1ccccc1N(CC)C(=O)c1nn(C)c2c1CSc1ccccc1-2 | 9.83
9 | CCn1c(/C=C2\C(=O)Nc3ccccc32)nc2ccccc2c1=O | 14.5
10 | Cc1ccc(C)c(NC(=S)NNC(=O)c2csc3c2CCCC3)c1 | -13
11 | O=C(NCCCN1CCOCC1)C1CC(=O)N(CCc2ccccc2)C1 (centres unmarked) | 14.3
12 | CCCCn1c(-c2cccnc2)nc2cc3[nH]c(=O)c(C(C)C)nc3cc21 | 0.579
13 | CN(C(=O)c1cccs1)c1ccc(OCC(=O)Nc2ccc(C(=O)O)cc2)cc1 | 11.8
14 | CCOC(=O)C1=CC[C@H]2c3c(c4ccccc4n3C)C[C@H]1N2C | 15.5
15 | COc1ccc(C2Nc3ccccc3C(=O)N2NS(=O)(=O)c2ccccc2)cc1OC (centres unmarked) | 8.25
16 | Nc1c(C(=O)c2ccc(Cl)cc2)sc2nc3c(cc12)CCC3 | 12.4
17 | O=C(Nc1cccc([N+](=O)[O-])c1)NC1CCCCCCC1 | 11
18 | O=C(O)C(=O)O.OCCNCCCOc1ccc(Cl)cc1Br | -3.62
19 | CCNS(=O)(=O)c1ccc(NC(=O)Nc2cc(C)ccc2OC)cc1 | 12.8

Row | Structure (SMILES) | hERG current change (%, negative = inhibition) at 1uM [%]
20 | Cc1ccc(CN(C(=O)c2csnn2)C(C(=O)NC2CCCC2)c2ccccn2)cc1 (centres unmarked) | 12.2
21 | COc1ccc(NC(=O)CSc2nnc(C)n2C2CC2)cc1S(=O)(=O)N1CCOCC1 | 11.9
22 | COC(=O)c1cccc(NC(=O)/C(=C\c2ccccc2)NC(=O)c2ccccc2Cl)c1 | 15.2
23 | CC(=O)Nc1ccc(OC(=O)CC2SC(=O)NC2=O)cc1 (centres unmarked) | 1.13
24 | O=C(CSc1n[nH]c(=O)[nH]c1=O)c1cccc([N+](=O)[O-])c1 | 14.7
25 | NCCCC[C@@H]1NC(=O)[C@H](CCC(=O)O)NC(=O)c2cc([N+](=O)[O-])cc(I)c2NCC[C@@H](C(N)=O)NC1=O | 21.2
26 | NC(=O)Cn1cc(/C=N\NS(=O)(=O)c2ccccc2)c2ccccc21 | 17.5
27 | COc1ccc(CN2CCc3cc(OC)c(OC)cc3C2)cc1O | -17.7
28 | O=C(Nc1ccc(-c2nc3ccccc3[nH]2)cc1)c1ccc(N2C(=O)CCC2=O)cc1 | 14.4
29 | Cc1cccc(NC(=O)COc2ccc(Br)cc2C)n1 | 12.7
30 | O=C(N/N=C/c1ccco1)c1cccc(N2CCCC2=O)c1 | 11.9
31 | O=C(NCCCn1ccnc1)C(=O)NCC(c1ccco1)N1CCN(c2ccc(F)cc2)CC1 (centres unmarked) | 4.08
32 | Cc1ccc(C2(C)NC(=O)N(CC(=O)Nc3ccccc3N3CCCCC3)C2=O)cc1 (centres unmarked) | 17.1
33 | Cc1cccnc1NC(=O)C1CCN(S(=O)(=O)c2ccc3ccccc3c2)CC1 | 14.4
34 | CC1(C)N=C(c2cccc(F)c2)C(=O)N1 | -2.57
35 | Nc1ccccc1C(=O)NNc1ncc(C(F)(F)F)cc1Cl | 1.76
36 | CCOc1cccc(/C=C(/C#N)c2nc3ccccc3[nH]2)c1OCC(=O)O | 13.7
37 | CCOc1ccc(N(C)S(=O)(=O)c2cc(-c3cc(C)no3)ccc2OC)cc1 | 8.35
38 | CCOc1cc(C(=O)N/N=C/c2ccoc2)cc(OCC)c1OCC | 6.54

Row | Structure (SMILES) | hERG current change (%, negative = inhibition) at 1uM [%]
39 | O=C(Nc1ccc2c(c1)OCO2)c1cccc2c1C(=O)N(C1CCCCC1)C2 | 13.4
40 | CCCC/C(C)=N/NC(=O)Nc1ccccc1 | 0.55
41 | O=C(c1cc([N+](=O)[O-])ccc1N1CCOCC1)N1CCCC1 | 5.56
42 | O=C1CCCc2nc3c(cc21)C(O)Oc1c-3ccc2ccccc12 (centres unmarked) | 2.73
43 | COc1ccc(S(=O)(=O)NN=C2CCCCC2)cc1 | 4.69
44 | O=C(NCc1ccccn1)/C(=N/O)c1ccccc1 | 9.34
45 | COc1cc(C)nc(N2CCC(C(N)=O)CC2)n1 | 4.53
46 | CCCCCOc1ccc(C(O)C(CN2CCOCC2)c2ccccc2)cc1.Cl (centres unmarked) | 13.4
47 | COc1cc(/C=N\NC(=O)CNC(=O)C2COc3ccccc3O2)ccc1O (centres unmarked) | -5.65
48 | O=C1C2C(C(=O)N1c1nccs1)C1C=CC2C12CC2 (centres unmarked) | 7.5
49 | O=C(NC(=S)Nc1ccc(O)cc1)c1ccccc1Cl | 7
50 | Cc1ccc(NC(=O)NC(=O)CSc2nnc(-c3ccc(Cl)cc3Cl)n2N)c(C)c1 | 10.5
51 | O=C(Nc1ccc2c(c1)CCC2)c1cccc(OC(F)F)c1 | -3.68
52 | COc1cc(N2CCOCC2)ccc1/C=C1\C(=O)NC(=O)N(Cc2cccs2)C1=O | 9.85
53 | Cc1ccc(C)c(S(=O)(=O)Nc2ccc3scnc3c2)c1 | 16.5
54 | COc1ccc(S(=O)(=O)N(CC(=O)O)c2ccccc2)cc1 | 11.9
55 | COc1ccc(N(C)C(=O)c2sc(Cl)nc2C)cc1 | 9.2
56 | COc1cc2c(cc1OC)CN(CC(=O)Nc1ccc(C)c(S(=O)(=O)N3CCOCC3)c1)CC2 | 13.1
